Screen size: about 310,000 compounds; about 2,200 (0.71%) showed an effect of 50% or more. Effects have a minus sign here. This is one part of the list.
Each compound was assayed against human ether-à-go-go-related gene (hERG) potassium channel (human, UniProt Q12809) (assay: primary screen, population patch clamp on CHO cells stably expressing hERG).
Chain of human ether-à-go-go-related gene (hERG) potassium channel (Q12809 whole entry, looked up): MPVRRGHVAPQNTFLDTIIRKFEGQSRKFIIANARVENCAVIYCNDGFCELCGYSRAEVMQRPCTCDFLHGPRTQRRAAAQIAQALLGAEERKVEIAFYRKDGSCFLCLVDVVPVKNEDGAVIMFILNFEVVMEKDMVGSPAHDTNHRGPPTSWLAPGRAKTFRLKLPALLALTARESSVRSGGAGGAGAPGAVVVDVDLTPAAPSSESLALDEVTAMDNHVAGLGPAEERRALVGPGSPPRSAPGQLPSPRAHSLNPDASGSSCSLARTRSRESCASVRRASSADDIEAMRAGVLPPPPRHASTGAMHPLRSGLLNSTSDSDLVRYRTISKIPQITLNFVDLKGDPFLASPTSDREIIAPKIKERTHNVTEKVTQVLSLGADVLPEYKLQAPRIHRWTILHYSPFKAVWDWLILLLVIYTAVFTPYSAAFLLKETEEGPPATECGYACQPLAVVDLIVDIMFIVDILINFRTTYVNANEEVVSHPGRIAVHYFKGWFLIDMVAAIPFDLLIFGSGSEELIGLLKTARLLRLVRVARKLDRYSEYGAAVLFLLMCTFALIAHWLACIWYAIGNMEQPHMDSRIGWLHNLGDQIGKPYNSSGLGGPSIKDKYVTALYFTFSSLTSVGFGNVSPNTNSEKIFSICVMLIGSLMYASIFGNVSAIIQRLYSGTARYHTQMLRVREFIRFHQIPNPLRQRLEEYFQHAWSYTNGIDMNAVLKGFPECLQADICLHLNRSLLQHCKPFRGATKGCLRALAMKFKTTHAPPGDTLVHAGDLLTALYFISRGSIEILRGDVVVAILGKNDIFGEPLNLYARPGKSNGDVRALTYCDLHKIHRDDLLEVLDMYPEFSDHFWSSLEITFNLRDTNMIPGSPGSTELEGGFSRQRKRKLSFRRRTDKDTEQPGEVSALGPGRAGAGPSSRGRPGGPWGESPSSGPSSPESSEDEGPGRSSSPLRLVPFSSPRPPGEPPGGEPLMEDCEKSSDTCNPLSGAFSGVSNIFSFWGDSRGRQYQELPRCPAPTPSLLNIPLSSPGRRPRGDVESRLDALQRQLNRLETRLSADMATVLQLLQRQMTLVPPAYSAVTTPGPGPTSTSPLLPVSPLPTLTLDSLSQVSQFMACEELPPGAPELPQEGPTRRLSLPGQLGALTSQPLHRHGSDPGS

| SMILES | hERG current change (%, negative = inhibition) at 1uM [%] |
| --- | --- |
| NS(=O)(=O)c1ccc(NC(=O)CN2CCCC2)cc1 | 7.23 |
| O=C(NC12CC3CC(CC(C3)C1)C2)c1ccc(-c2ccccc2Cl)o1 | 3.59 |
| Cc1c(NC(=O)c2cc(-c3cccs3)on2)c(=O)n(-c2ccccc2)n1C | -8.63 |
| CC(C)OP(=O)(OC(C)C)/C(C=O)=N\Nc1ccc([N+](=O)[O-])cc1 | -17.6 |
| Cc1ccc(N2C(=O)C3C(C2=O)N2C(c4cccs4)C4C(=O)N(c5ccc(C)cc5)C(=O)C4N2C3c2cccs2)cc1 (centres unmarked) | 6.33 |
| CCN(C(=O)c1cc(Cl)ccc1OC)C1CCCCC1 | -11.7 |
| C/C(=N\NC(=O)c1ccc2c(c1)OCO2)c1ccc(NC(=O)CCCC(=O)O)cc1 | 16 |
| Cc1cccc(OCC(=O)Nc2sc3c(c2C#N)CCC3)c1 | 12.8 |
| CC(=O)N/C(=C\c1ccc(Br)s1)C(=O)O | 14.9 |
| C(=C\c1nnc2c3ccccc3ncn12)/c1ccccc1 | 11.4 |
| CC(C)CN(C(=O)COC(=O)CNC(=O)c1ccccc1)c1c(N)n(Cc2ccccc2)c(=O)[nH]c1=O | 6.99 |
| Cc1[nH]c2ccccc2c1-c1nc(-c2ccc(Cl)cc2)nnc1-c1ccccc1 | 1.68 |
| CN1CCN(Cc2cc3c(cc2[N+](=O)[O-])OCO3)CC1 | 6.29 |
| Cc1cc(C(=O)N2CCc3ccccc32)c2cc(F)ccc2n1 | 5.46 |
| CCc1nc(NCc2ccccc2)c(C#N)c2c1CCCC2 | 11.9 |
| O=C1N/C(=N\N=C\c2ccco2)SC1Cc1ccc(F)cc1 (centres unmarked) | 9.49 |
| CN(C)CCCCOc1ccc(F)cc1.O=C(O)C(=O)O | -5.8 |
| O=C(COC(=O)c1ccc(Cl)cc1[N+](=O)[O-])NC(=O)c1ccccc1 | 9.37 |
| CCN1CCCC1CNC(=O)C1CCCN(S(=O)(=O)c2cccc3nsnc23)C1 (centres unmarked) | 7.09 |
| Cc1nnc(Sc2nc3c(c(=O)[nH]c(=O)n3C)n2Cc2ccccc2)s1 | 0.495 |
| CCNc1nc(Cl)nc(NC(C)C)n1 | 12.2 |
| CCOc1ccc(CNc2ccc(N3CCN(Cc4ccccc4)CC3)cc2)cc1 | 12 |

| SMILES | hERG current change (%, negative = inhibition) at 1uM [%] |
| --- | --- |
| Cc1cc(C(=O)Nc2sc(C)c(-c3ccc(F)cc3)c2C(N)=O)no1 | 19.5 |
| Cc1ccc(S(=O)(=O)N2CCN(C(=O)Cn3c(=O)oc4ccccc43)CC2)c(C)c1 | 6.44 |
| Cn1c(C(N)=O)cnc1Sc1ncc(C(F)(F)F)cc1Cl | 15.1 |
| CCn1c(SCC(=O)O)nnc1-c1ccc2[nH]c(C)c(C)c2c1 | -3.32 |
| O=C(CSc1cn(CCNC(=O)c2ccccc2)c2ccccc12)NCc1ccco1 | 3.25 |
| COC(=O)c1c(S(C)(=O)=O)nc(-c2ccccc2)[nH]c1=O | 6.36 |
| Cc1ccccc1C(=O)Nc1ccc(S(=O)(=O)Nc2onc(C)c2C)cc1 | -0.673 |
| COc1cc2c(cc1OC)CN(C(=O)c1ccc(S(=O)(=O)N3CCCCCC3)cc1)CC2 | 15.1 |
| Cc1nn(-c2ccccc2)c2sc(C(=O)OC3CCOC3=O)cc12 (centres unmarked) | -8.01 |
| CC12CCC3c4ccc(O)cc4CCC3C1CCC2=O (centres unmarked) | 4 |
| O=C(COC(=O)Cc1ccsc1)Nc1ccc(Br)cc1 | 9.81 |
| Cc1c(C(=O)NCc2cccs2)oc2ccc(Br)cc12 | 17.5 |
| COc1ccc(N2CCN(C(=O)CSc3nnc4c(C)cc5c(C)cc(C)cc5n34)CC2)cc1 | 5.3 |
| COc1cc(C)ccc1S(=O)(=O)N1CCN(C23CC4CC(CC(C4)C2)C3)CC1 | 4.7 |
| COc1ccc(C(NC(=O)C(C)C)c2c(O)ccc3ccccc23)cc1 (centres unmarked) | 16 |
| COc1ccc(OCC(=O)N/N=C(\C)CC(=O)Nc2ccc(OC)cc2[N+](=O)[O-])cc1 | -61.8 |
| CCN(CC)S(=O)(=O)c1ccc(C(=O)NC2=C(C(=O)OC)SCC2)cc1 | -0.706 |
| Cc1cc(NC(=O)CSc2n[nH]c(-c3ccc(Cl)cc3Cl)n2)no1 | 2.79 |
| O=C(c1cccs1)N1CCCC(c2ccccc2)C1 (centres unmarked) | -0.554 |
| CC(C)CN(C(=O)COC(=O)CCC(=O)c1ccc(F)cc1)c1c(N)n(Cc2ccccc2)c(=O)[nH]c1=O | 4.12 |
| O=C(C/C=N/OCc1ccc(F)cc1Cl)c1cnc(-c2ccccc2)s1 | 8.27 |
| O=C(CNC(=O)c1ccco1)N=Nc1c(O)n(CCc2ccccc2)c2ccccc12 | -25.6 |

| SMILES | hERG current change (%, negative = inhibition) at 1uM [%] |
| --- | --- |
| COC(=O)c1ccc(C(=O)OC)c(NC(=O)Oc2ccccc2)c1 | 14.4 |
| O=C(C[n+]1ccc(C(=O)NCc2ccccc2)cc1)c1ccc(Cl)cc1.[Br-] | -32.4 |
| Cc1ccc(Nc2c(-c3ccc(N4CCOCC4)cc3)nc3cnccn23)cc1 | 9.37 |
| C[C@@H](C(=O)Nc1ccc2c(c1)OCCO2)n1nnc2ccccc2c1=O | 21.9 |
| C=CCn1c(SCC(=O)Nc2ccccc2OC)nc(O)c(CC)c1=O | -4.87 |
| Cc1ccc(C)c(N2CCN(C(=O)CC3Sc4ccccc4NC3=O)CC2)c1 (centres unmarked) | 13 |
| CCCCCn1c(N)c(-c2nc3ccccc3s2)c2c([N+](=O)[O-])nn(CC)c(=O)c21 | 8.22 |
| CC(C)(NC(=O)c1cc(Cl)c2ccccc2c1O)C(=O)O | 17.9 |
| CCn1c(-c2c[nH]c3ccccc23)n[nH]c1=S | 11.5 |
| O=C(O)C(=O)O.O=C(c1cccc(Cl)c1)N1CCN(CCCc2ccccc2)CC1 | -14.9 |
| O=C(O)c1ccc(N2CCCC2=O)cc1 | 12.5 |
| Cc1nnc2ccc(N3CCN(c4cccc(C(F)(F)F)c4)CC3)nn12 | -28 |
| C[C@]12C=CC(=O)C=C1CC[C@@H]1[C@@H]2[C@@H](O)C[C@@]2(C)[C@H]1CC[C@]2(O)C(=O)COC(=O)CCC(=O)[O-].[Na+] | 22.5 |
| Nc1ccc(Br)cc1C(NCC(=O)O)c1ccccc1 (centres unmarked) | 18.5 |
| CN(CC(=O)NCCC1=CCCCC1)S(=O)(=O)c1ccc2c(c1)CCC(=O)N2 | 6.24 |
| Cc1nc2sc(C(c3ccccc3)N3CCN(c4ccccc4F)CC3)c(O)n2n1 (centres unmarked) | -0.47 |
| Cc1cnc(CNC(=O)CC2C(=O)NCCN2Cc2ccccc2F)cn1 (centres unmarked) | 11.7 |
| CC(=O)Nc1ccc(NC(=O)CSc2ccc([N+](=O)[O-])cn2)cc1 | 13.1 |
| Cc1ccc2nsnc2c1S(=O)(=O)N1CCCC1 | -3.03 |
| COc1ccc(C(=O)N/C(=C/c2cccs2)C(=O)NCCCn2ccnc2)cc1OC | 0.585 |
| CCOCCn1[nH]c2ccccc2c1=O | 10.5 |
| CCC(COC(=O)Nc1cccc(C)c1C)NC(=O)OCC(C)C (centres unmarked) | -7.46 |

| SMILES | hERG current change (%, negative = inhibition) at 1uM [%] |
| --- | --- |
| Cc1cc(=O)oc2cc3c(cc12)OCCO3 | 16.7 |
| Br.COC(=O)CN1C(C)=Nc2ccc(Br)cc2C1c1ccccc1 (centres unmarked) | -18.3 |
| CC(=O)NNc1[nH]c2c(c(=O)c1[N+](=O)[O-])c(=O)n(C)c(=O)n2C | 9.85 |
| COc1ccc(CCNC(=O)c2ccc([N+](=O)[O-])cc2Cl)cc1OC | 5.72 |
| CCCS(=O)(=O)N1CCN(C(=O)c2cccs2)CC1 | -0.379 |
| C=CCCC(=O)NC1CC(C)(C)Cc2c1cnn2-c1cccc(F)c1 (centres unmarked) | -17.4 |
| CCN1C(=O)[C@H]2[C@@H](c3ccc(-c4ccc(OC)cc4)cc3)N3CCC[C@@]3(C(=O)OC)[C@H]2C1=O.O=C(O)C(F)(F)F | 11.6 |
| CCN1CCCC1CN=Cc1c(O)n(-c2ccccc2)c(=O)c2ccccc12 (centres unmarked) | -9.62 |
| COc1ccc(C(=O)Nc2nnc(S(=O)(=O)N3CCCCCC3)s2)cc1OC | 9.03 |
| COc1cccc(-c2cc(C(F)(F)F)n3ncc(S(=O)(=O)c4ccccc4)c3n2)c1 | -0.258 |
| N/C(Cc1ccc(Cl)cc1)=N\OC(=O)C1CCCCC1 | 6.48 |
| Cc1ccc(NC(=O)CN2C(=O)C(=O)N(C3CCCC3)C2=O)c(Cl)c1 | 11.1 |
| CN(C(=O)CNC(=O)OCc1ccccc1)c1ccc(Br)cc1C(=O)c1ccccc1Cl | 11.7 |
| C=CCNc1nc(C(=O)OCC(=O)c2ccc(Cl)cc2)cs1 | 1.02 |
| O=C(Nc1cccc(C(=O)O)c1)/C(=C\c1ccco1)NC(=O)c1ccccc1 | 11.4 |
| CC1CCN(C(=S)Nc2ccc(SC(F)F)cc2)CC1 | -31.7 |
| COc1ccc(C)cc1NC(=O)COCC(=O)O | 2.28 |
| Cn1c(=O)c2c(nc(CN3CCN(C(=O)c4ccco4)CC3)n2Cc2ccc(F)cc2)n(C)c1=O | -21.5 |
| Cn1c(=O)cc(C(=O)N/N=C/c2ccc(F)cc2)[nH]c1=O | 10.7 |
| Cc1ccc(S(=O)(=O)N2CCN(Cc3nc4ccccc4[nH]3)CC2)cc1C | 2.08 |

Source: article PMC4336329 (PLoS ONE, 2015)
